Data: the RNAGym collection of RNA variant scans (doi:10.1093/nar/gkz1192)
The source gives no read counts; variants with many changes may rest on few reads.

B1: CPEB3 Ribozyme (parent)
chain: UAACAGGGGGCCACAGCAGAAGCGUUCACGUCGCAGCCCCUGUCAGAUUCUGGUGAAUCUGCGAAUUCUGCUGUAUAUCUC

Variants of: B1
Experiment: self-cleavage, relative activity (ratio to wild type); higher = more cleavage; in vitro, sequencing
In short: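 For each CPEB3 ribozyme variant, relative activity is its cleaved/total read fraction divided by the unmutated ribozyme's. Barcoded error-prone PCR libraries were transcribed by T7 RNA polymerase (5 hours, 37°C) and held in DNase I for 15 min before an EDTA stop, with cleavage occurring throughout. Template-switching reverse transcription and Illumina sequencing were used to read the RNAs. A 5-read minimum applied, and results are the mean of three batches.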

| Variant | self-cleavage |
| --- | --- |
| U41G G53A U72C C79A | 0.12 |
| U41G G53C U72C | 0.2 |
| U41G U43A G61A A64U U67C A77U | 0.07 |
| U41G U43A U49C A56U U80C | 0.07 |
| U41G U48C U66A U72A U80C | 0.31 |
| U41G U49C G53C U54C U72A | 0.11 |
| U41G U49C U54C U67C | 0.2 |
| U41G U49C U67C A75G | 0.09 |
| U41G U49G C62A U69A U78C | 0.05 |
| U41G U49G G55C G63A | 0.16 |
| U41G U51A A57G | 0.16 |
| U41G U51A U54A A56U U60C A65G U78G | 0.03 |
| U41G U51C U54C | 0.15 |
| U41G U51C U54C U72C A75G | 0.17 |
| U41G U51C U74C | 0.36 |
| U41G U54C U60A U69C U72C | 0.19 |
| U41G U58A U74C | 0.13 |
| U41G U60A A64G U67C | 0.14 |
| U41G U60C U80C | 0.21 |
| U41G U67C U69C | 0.06 |
| G42A A56G U67C U72A | 0.03 |
| G42A A64U U76A | 0.28 |
| G42A G46C U69A U72A | 0.07 |
| G42A G53U A64G U67C U69C | 0.1 |

| Variant | self-cleavage |
| --- | --- |
| G42A G63A U78C | 0.26 |
| G42A U48C A57G U66C | 0.38 |
| G42A U58C A64U U69A | 0.15 |
| G42A U58C U67C | 0.12 |
| G42A U60A U72A | 0.09 |
| G42A U60C U67A | 0.16 |
| G42A U60C U67C G73A U78C | 0.07 |
| G42C A47G A56U U60A | 0.13 |
| G42C A56G U60A | 0.07 |
| G42C A57U A65U | 0.06 |
| G42C U43C A45U A56G U72C U78G | 0.25 |
| G42C U48C U80C | 0.28 |
| G42C U49C C59U | 0.1 |
| G42C U54A A75U | 0.49 |
| G42C U60A U76A U80C | 0.33 |
| G42U A56G A65U | 0.18 |
| G42U A56U G63A U74G | 0.31 |
| G42U A75U U78C | 0.23 |
| G42U C44A U69A | 0.17 |
| G42U U49C C59U U74C | 0.16 |
| G42U U51A U74C | 0.34 |
| U43A A45G A47G G61C U72A U74C | 0.12 |
| U43A A45G U60A | 0.34 |
| U43A A45G U67C | 0.12 |

| Variant | self-cleavage |
| --- | --- |
| U43A A45G U72C U80A | 1.16 |
| U43A A45G U74C | 1.26 |
| U43A A45G U76A | 0.71 |
| U43A A45U A56U U66C | 0.06 |
| U43A A45U G61U | 0.11 |
| U43A A45U U67C U78C | 0.16 |
| U43A A47G U49C | 0.47 |
| U43A A56G U66A U69C | 0.22 |
| U43A A56G U69G | 0.6 |
| U43A A57G A64G U72C | 0.94 |
| U43A A57G A75U U78C | 0.94 |
| U43A A64G A65G | 0.22 |
| U43A A64G A75G C79A | 1.01 |
| U43A A64G U72A | 0.69 |
| U43A A64G U78C | 1.16 |
| U43A A64U U66C | 0.35 |
| U43A C50U U78C | 1.14 |
| U43A C59U U72C U74A | 1.18 |
| U43A G46U A47U C50U A56G | 0.2 |
| U43A G63A A75G | 0.89 |
| U43A U48A G61A U69C A77U | 0.16 |
| U43A U48C A56G U76C U80A | 0.38 |
| U43A U48C U66C | 0.12 |
| U43A U48C U76C | 0.74 |

| Variant | self-cleavage |
| --- | --- |
| U43A U48C U78C | 0.77 |
| U43A U48G U67C | 0.18 |
| U43A U49A G52A | 0.82 |
| U43A U49A U51A | 0.42 |
| U43A U49C U72C | 0.35 |
| U43A U51A G55U U78A | 0.98 |
| U43A U51C A57G A65G | 0.5 |
| U43A U51C U60A | 0.66 |
| U43A U51C U80A | 1.24 |
| U43A U54A A56G | 0.75 |
| U43A U54C A56U | 0.71 |
| U43A U54C U58G U60C | 0.21 |
| U43A U54C U60A U66C | 0.28 |
| U43A U54C U67A U80C | 0.65 |
| U43A U58C A77G | 0.48 |
| U43A U58C U60C A64G A65U | 0.23 |
| U43A U58C U74C | 0.9 |
| U43A U60A U76C | 0.66 |
| U43A U60C A65G | 0.22 |
| U43A U66C U76A U80C | 0.38 |
| U43A U66C U80C | 0.35 |
| U43A U67C A77G | 0.51 |
| U43A U67C U72C | 0.38 |
| U43A U67G U72C | 0.42 |

| Variant | self-cleavage |
| --- | --- |
| U43A U69A A75G U80C | 0.46 |
| U43A U69A U72A A77U | 0.42 |
| U43A U69G U72C U74C C81A | 0.55 |
| U43A U72C A75G U80C | 1.15 |
| U43A U74C A77U | 1.26 |
| U43A U74C U80C | 1.26 |
| U43C A45G A57G U76C | 0.22 |
| U43C A45G A64U U78G | 0.06 |
| U43C A45G C71U | 0.19 |
| U43C A45G U48C U60A | 0.16 |
| U43C A45G U51A | 0.51 |
| U43C A45G U58C U72C | 0.07 |
| U43C A45G U58G | 0.12 |
| U43C A45G U60C | 0.96 |
| U43C A45G U69C | 0.18 |
| U43C A45G U74C U80A | 1.06 |
| U43C A45U A56G | 0.36 |
| U43C A45U U48C A64U | 0.1 |
| U43C A45U U60C U69C | 0.14 |
| U43C A45U U69C U80C | 0.07 |
| U43C A45U U80C | 0.12 |
| U43C A47G A57G A64C | 0.14 |
| U43C A47G U48C U78C | 0.06 |
| U43C A47G U54C | 0.22 |

| Variant | self-cleavage |
| --- | --- |
| U43C A47G U54C U69C | 0.22 |
| U43C A47G U60C U80C | 0.17 |
| U43C A47G U66C | 0.1 |
| U43C A47U U78C | 0.5 |
| U43C A47U U80A | 0.21 |
| U43C A56C U58A U80C | 0.1 |
| U43C A56G A64G U66C U69A U72C | 0 |
| U43C A56G A64G U67C | 0.14 |
| U43C A56G U58C U60C U74A | 0.29 |
| U43C A56U A65G | 0.17 |
| U43C A56U A65G U78C | 0.09 |
| U43C A56U C68A | 0.18 |
| U43C A56U G61U G63A U66C U72C A77G | 0.24 |
| U43C A56U U60A | 0.14 |
| U43C A56U U69C | 0.26 |
| U43C A56U U72C | 0.16 |
| U43C A56U U78C | 0.26 |
| U43C A57C A65G | 0.1 |
| U43C A57G A64C U69G U74G | 0.2 |
| U43C A57G U72C | 0.46 |
| U43C A57G U76C | 0.34 |
| U43C A64C U66A U69C | 0.1 |
| U43C A64G C68U U78C | 0.17 |
| U43C A64G U66C U80A | 0.09 |

| Variant | self-cleavage |
| --- | --- |
| U43C A64G U72A | 0.49 |
| U43C A64G U74A | 1.03 |
| U43C A65G G70A | 0.11 |
| U43C A65G U66G | 0.24 |
| U43C A65G U69A | 0.2 |
| U43C A65G U69C A77U | 0.18 |
| U43C A65G U76A | 0.2 |
| U43C A75C U78C | 0.59 |
| U43C A77G U80A | 0.77 |
| U43C C44A U48C U78A | 0.25 |
| U43C C44U A47U A57C U66A | 0.19 |
| U43C C50G G53A A57G | 0.21 |
| U43C C50G U78C | 0.14 |
| U43C C59U U66C G73U | 0.11 |
| U43C C59U U67C | 0.12 |
| U43C C59U U78C | 0.17 |
| U43C C68U U76C | 0.14 |
| U43C C71A A75G U78A | 0.1 |
| U43C C71U A77U U78C C79A | 0.32 |
| U43C G52A U54C U69C | 0.18 |
| U43C G52A U72C | 0.94 |
| U43C G52C U54G A57G | 0.42 |
| U43C G53A U80C | 0.76 |
